Reference: PubChem BioAssay AID1345083 (National Center for Advancing Translational Sciences (NCATS), 2018)
The whole screen tested about 94,000 compounds, of which about 6,200 (6.6%) were called active. The shares of active, inactive and inconclusive entries below differ from those in the screen. Calls come from the whole dose curve; as a rule, active = well fitted inhibition curve with a large enough effect; inconclusive = small, poorly fitted or top-dose-only effect; inactive = flat fitted curve, though single readings scatter. Potencies beside an inconclusive call are fits to weak or partial responses and may not hold up.

experiment: Cytotoxic Profiling in HEK 293 Cell Line of Diverse Libraries Using Quantitative High-Throughput Screening; conditions: HEK 293 viability, ATP luminescence (CellTiter-Glo), 48-72 h; activity change, negative = cytotoxicity: at 115 µM (top of the series) unless noted; series mostly up to 115 µM; note: nearly all actives have a fitted effect of over 60% in size
Procedure, shortened: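 Viability of HEK 293 cells, plated at 250 cells/well, was judged by cellular ATP after compound treatment for 48 or 72 hr. Luminescence was imaged 10 min after CellTiter-Glo addition at room temperature.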
% is set by controls: 0 for no effect and ±100 for the full control effect; potency is the fitted concentration of half-maximal effect; tags give direction and shape of the fitted curve.

Structure (SMILES)	activity change, negative = cytotoxicity	Potency	outcome
Cc1cc(C(=O)N(C)CC2CCCN(CCc3ccccc3F)C2)n[nH]1 (configuration not stated)	inactive: 1.22%		
Cc1ccc(NC(=O)Cn2ccn3nc4c(c3c2=O)CC(C)CC4)cc1 (configuration not stated)		inconclusive: 50.1 µM [inhibitor, partial curve, poor fit]	
CC(C)NC(=O)c1cc(-c2ccc(S(C)(=O)=O)cc2)c2cnn(C)c2n1			inactive
CCCc1ccc(S(=O)(=O)N(C)CC2CCOCC2)cc1		inconclusive: 39.8 µM [inhibitor, full curve, poor fit]	
COCCCn1c(C)cc(C(=O)NCCc2noc(COC)n2)c1C	inactive: 4.58%		
CC(=O)N1CCN(C(=O)C2CCN(c3nccc(Nc4ccccc4Cl)n3)CC2)CC1		inconclusive: 89.1 µM [inhibitor, single point]	
CC1=C[C@@H](CN)[C@H](C(C)C)C[C@H]1Cc1nc2ccccc2[nH]1		inconclusive: 100 µM [inhibitor, partial curve, poor fit]	
CC1Oc2ccc(NC(=O)c3cccs3)cc2CN(Cc2ccccc2)C1=O (configuration not stated)		active: 25.1 µM	
CCOc1ccccc1CN1CC[C@H](c2n[nH]c(C)n2)[C@H](NC(=O)C2CCOCC2)C1	inactive: -22%		
Cn1cc(-c2cccc(CO)c2)c2nc(COc3ccc(Cl)cc3)cn2c1=O		active: 63.1 µM	
CCOc1ccccc1N1CCN(C(=O)CCn2ccn3nc4c(c3c2=O)CCCC4)CC1	inactive: -16.6%		
CC1(C)CN(C(=O)COc2ccccc2)CC(=O)N(Cc2ccccc2)C1	inactive: -21.9%		
O=C(Cc1ccc(Cl)cc1)N1CCC(n2cc(-c3nc(-c4ccccc4)no3)nn2)C1 (configuration not stated)		inconclusive: 35.5 µM [inhibitor, partial curve, poor fit]	
COc1ccc(CCC(=O)N2Cc3ccccc3OC3(CCN(C)CC3)C2)cc1		inconclusive: 89.1 µM [inhibitor, single point]	
COc1ccc(-c2ccnc(-c3nnc(C)n3Cc3ccccc3)c2)cc1OC		inconclusive: 79.4 µM [inhibitor, partial curve]	
CNC(=O)c1cc(-c2cnn(C)c2C)cc2c1OCCN2Cc1cccnc1	inactive: -4.04% [at 172 µM]		
O=C(c1cccs1)N1CCCCCC1CN1CCCC1 (configuration not stated)		inconclusive: 89.1 µM [inhibitor, single point]	
COc1ccc(-c2ccc(C(=O)NCc3ccccc3F)cc2)nn1		active: 112 µM	
CCN1CCN(C(=O)C2CCN(c3ccnc4ccnn34)CC2)CC1		inconclusive: 112 µM [inhibitor, partial curve, poor fit]	
O=c1n(CCCN2CCN([S+](=O)([O-])c3cccs3)CC2)nc2n1CCCC2	inactive: -6.81%		
Cc1ccc(-c2ncc3c(n2)OCCN(c2ccccc2)C3=O)cc1F		inconclusive: 89.1 µM [inhibitor, partial curve, poor fit]	
CCc1nc2c(c(-c3ccc(O)cc3)n1)CCN(Cc1ccccn1)CC2	inactive: 2.44%		
CC(=O)Nc1cccc(C(=O)N2CCC3(CC2)NC(=O)N(c2cccc(Cl)c2)N3)c1		inconclusive: 28.2 µM [inhibitor, full curve]	

Structure (SMILES)	activity change, negative = cytotoxicity	Potency	outcome
COC(=O)c1ccccc1NC(=O)N1CCC[C@@H](O)[C@H](NC(=O)c2ccc(OCc3ccccc3)cc2)C1		inconclusive: 56.2 µM [inhibitor, partial curve, poor fit]	
CC1=NS(=O)(=O)N(C)C=C1C(=O)OCc1nc(-c2cccc(Cl)c2)no1		inconclusive: 50.1 µM [inhibitor, partial curve, poor fit]	
CCOCC1(C)COc2ccc(C(=O)N(C)Cc3ccccc3)cc2N1 (configuration not stated)		inconclusive: 100 µM [inhibitor, partial curve]	
Cc1cc(Cl)ccc1NC(=O)N1CCCC(Cn2cnc3cccnc32)C1 (configuration not stated)		inconclusive: 56.2 µM [inhibitor, partial curve, poor fit]	
CN1Cc2ncnc(NCCc3ccccc3)c2CN(c2ccc(Cl)cc2)C1=O		inconclusive: 79.4 µM [inhibitor, partial curve, poor fit]	
Cc1nc2cnccn2c1C(=O)NCc1cccs1	inactive: 2.24% [at 172 µM]		
O=C(O)CC1CCCN(c2cn[nH]c(=O)c2)C1 (configuration not stated)	inactive: 16.7%		
COCCN1CC(CO)C2(CCN(Cc3cccc(C#N)c3)CC2)C1 (configuration not stated)		inconclusive: 89.1 µM [inhibitor, single point]	
COC(=O)c1nc(NC(=O)C[C@H]2NC(=O)c3ccccc3NC2=O)sc1CC(C)C		inconclusive: 35.5 µM [inhibitor, partial curve]	
Cc1ccsc1C(=O)N1CCC2(CC1)NC(=O)N(Cc1ccccc1)C2=O		inconclusive: 50.1 µM [inhibitor, partial curve, poor fit]	
CCOCCN1C(=O)NC(c2ccc(OC)cc2)C2=C1COC2=O (configuration not stated)	inactive: -0.337%		
Cc1nn2c(c1-c1ccccc1-c1ccccc1)N(Cc1ccc(O)cc1)CCC2		active: 7.94 µM	
COc1ccc(C2Cn3nnc(C(=O)NC4CCCCCCC4)c3CO2)cc1 (configuration not stated)		inconclusive: 50.1 µM [inhibitor, partial curve, poor fit]	
Cn1nc(-c2nncn2CC2CC2)c2c1CCN(C(=O)c1n[nH]c3ccccc13)C2		inconclusive: 89.1 µM [inhibitor, single point]	
CN(C)c1ccc(CN2CCC3(CC2)C(=NC2CCCCC2)NC(=O)N3c2cc(F)cc(F)c2)cc1		inconclusive: 70.8 µM [inhibitor, partial curve, poor fit]	
O=C(O)c1ccc(-c2ccc(N3CCCCCC3)nc2)cc1	inactive: 7.47%		
Cc1cc(C)c(CNC(=O)c2nc(-c3ccc(CO)cc3)cc3c2ccn3C(C)C)c(=O)[nH]1		active: 79.4 µM	
CS(=O)(=O)c1ccc(CN2C[C@H](O)C[C@H]2c2nc(-c3ccc(F)cc3)no2)cc1	inactive: -24.9% [at 172 µM]		
COc1ccccc1C(=O)NCc1ccnc2[nH]ccc12		inconclusive: 126 µM [inhibitor, single point]	
COc1cc(-c2onc(C)c2C(=O)N2CCC(Cc3ccc4c(c3)OCO4)CC2)cc(OC)c1OC		inconclusive: 50.1 µM [inhibitor, partial curve, poor fit]	
O=C(c1nnc(COc2ccc(OC(F)(F)F)cc2)n1-c1ccccc1)N1CCC[C@@H]1C(c1ccccc1)c1ccccc1		inconclusive: 17.8 µM [inhibitor, full curve, poor fit]	
O=C(CCc1ccccc1)N1CC(n2cc(COCC3CC3)nn2)C1	inactive: -0.571%		
COc1ccc(CNC(=O)C2CCN(c3nccc(Nc4ccc(OC)cc4)n3)CC2)cc1		active: 44.7 µM	

Structure (SMILES)	activity change, negative = cytotoxicity	Potency	outcome
COc1ccc(-c2cnc3[nH]cc(CC(=O)Nc4cccnc4)c3c2)cc1		active: 70.8 µM	
CC[C@H]1CN(C(=O)Nc2cccc(C(F)(F)F)c2)CC[C@H]1CC(=O)Nc1ccccc1		active: 50.1 µM	
CC(C)(C)CCN1CCC(F)(c2nc(-c3ccccc3)no2)CC1		inconclusive: 50.1 µM [inhibitor, partial curve, poor fit]	
COc1ccc(-c2cccc(COc3cnc4c(ccn4CC(=O)O)c3)c2)c(C)c1		inconclusive: 89.1 µM [inhibitor, partial curve, poor fit]	
Cc1cc(C)c2[nH]c(C(=O)N(C)Cc3ccc4nsnc4c3)c(C)c2c1		inconclusive: 50.1 µM [inhibitor, partial curve, poor fit]	
FC(F)(F)c1ccc(CN2CCNc3cc(Nc4ccccc4)ncc3C2)cc1		active: 44.7 µM	
O=C(NCC1CCCN(C(=O)c2ccccn2)C1)c1ccc(-c2ccccc2)cc1 (configuration not stated)		inconclusive: 39.8 µM [inhibitor, full curve, poor fit]	
COc1ccc(Nc2ccnc(N3CCC(NC(=O)c4ccccc4F)CC3)n2)cc1		active: 50.1 µM	
Cc1ccc(CN2CCCC(c3nc(-c4cccnc4)no3)CCNC(=O)CC2)s1 (configuration not stated)		active: 89.1 µM	
O=C(NC1CCCC1)C1CCCCN1Cc1ccc(-c2ccsc2)cc1 (configuration not stated)		active: 25.1 µM	
COc1ccc(NC(=O)c2cc3sc(C)c(CN4CCCCC4)c3[nH]2)cc1OC		inconclusive: 50.1 µM [inhibitor, partial curve, poor fit]	
O=C1Nc2ccccc2C12CN(Cc1cncs1)C2		inconclusive: 126 µM [inhibitor, single point]	
COCC(=O)N1CCN(C(=O)c2nc3cccnc3n(CCc3ccccc3)c2=O)CC1	inactive: 1.31%		
C=CCN1C[C@@H]2C[C@@H](C(=O)NC)N(C(=O)CCCCC)c3cccc(c32)[S+]1(=O)[O-]	inactive: -2.72% [at 57.5 µM]		
COc1ccccc1CN1CC(c2noc(CC3CCCC3)n2)CC1=O (configuration not stated)		inconclusive: 56.2 µM [inhibitor, partial curve, poor fit]	
O[C@@H]1C[C@@H](c2nc(-c3ccc(OC(F)(F)F)cc3)no2)N(Cc2ncc[nH]2)C1		inconclusive: 79.4 µM [inhibitor, partial curve]	
CN1C(=O)CCC2(CNC(=O)c3ccccc3F)CCC=C12 (configuration not stated)			inactive
Cc1noc(C)c1-c1cc2c(cc(C)n2C)c(-c2ccc(CO)cc2)n1		inconclusive: 39.8 µM [inhibitor, partial curve, poor fit]	
CCOc1ccc(CC(=O)NC2CCCN(c3cc(-c4ccc(F)cc4)[nH]n3)C2)cc1OCC (configuration not stated)		inconclusive: 50.1 µM [inhibitor, partial curve, poor fit]	
CC1Oc2ccc(NC(=O)c3ccccc3Cl)cc2CN(Cc2ccccc2F)C1=O (configuration not stated)		inconclusive: 17.8 µM [inhibitor, full curve, poor fit]	
CC1=C[C@@H](CNC(=O)CCCC(=O)O)[C@H](C(C)C)C[C@H]1Cc1nc2ccc(C)cc2[nH]1	inactive: -20.5% [at 172 µM]		
